# Test results as given in paper PMC4336329 (PLoS ONE, 2015).
# Screen size: about 310,000 compounds; about 14,000 (4.5%) showed an effect of 50% or more. Effects have a minus sign here. The list shows a part of the results.
# Biological target: human ether-à-go-go-related gene (hERG) potassium channel (human, UniProt Q12809)
# Assay: primary screen, population patch clamp on CHO cells stably expressing hERG
# 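Note: peak tail current of the secondary pulse compared with the same well before compound.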
# Sequence of human ether-à-go-go-related gene (hERG) potassium channel (Q12809 whole entry, looked up): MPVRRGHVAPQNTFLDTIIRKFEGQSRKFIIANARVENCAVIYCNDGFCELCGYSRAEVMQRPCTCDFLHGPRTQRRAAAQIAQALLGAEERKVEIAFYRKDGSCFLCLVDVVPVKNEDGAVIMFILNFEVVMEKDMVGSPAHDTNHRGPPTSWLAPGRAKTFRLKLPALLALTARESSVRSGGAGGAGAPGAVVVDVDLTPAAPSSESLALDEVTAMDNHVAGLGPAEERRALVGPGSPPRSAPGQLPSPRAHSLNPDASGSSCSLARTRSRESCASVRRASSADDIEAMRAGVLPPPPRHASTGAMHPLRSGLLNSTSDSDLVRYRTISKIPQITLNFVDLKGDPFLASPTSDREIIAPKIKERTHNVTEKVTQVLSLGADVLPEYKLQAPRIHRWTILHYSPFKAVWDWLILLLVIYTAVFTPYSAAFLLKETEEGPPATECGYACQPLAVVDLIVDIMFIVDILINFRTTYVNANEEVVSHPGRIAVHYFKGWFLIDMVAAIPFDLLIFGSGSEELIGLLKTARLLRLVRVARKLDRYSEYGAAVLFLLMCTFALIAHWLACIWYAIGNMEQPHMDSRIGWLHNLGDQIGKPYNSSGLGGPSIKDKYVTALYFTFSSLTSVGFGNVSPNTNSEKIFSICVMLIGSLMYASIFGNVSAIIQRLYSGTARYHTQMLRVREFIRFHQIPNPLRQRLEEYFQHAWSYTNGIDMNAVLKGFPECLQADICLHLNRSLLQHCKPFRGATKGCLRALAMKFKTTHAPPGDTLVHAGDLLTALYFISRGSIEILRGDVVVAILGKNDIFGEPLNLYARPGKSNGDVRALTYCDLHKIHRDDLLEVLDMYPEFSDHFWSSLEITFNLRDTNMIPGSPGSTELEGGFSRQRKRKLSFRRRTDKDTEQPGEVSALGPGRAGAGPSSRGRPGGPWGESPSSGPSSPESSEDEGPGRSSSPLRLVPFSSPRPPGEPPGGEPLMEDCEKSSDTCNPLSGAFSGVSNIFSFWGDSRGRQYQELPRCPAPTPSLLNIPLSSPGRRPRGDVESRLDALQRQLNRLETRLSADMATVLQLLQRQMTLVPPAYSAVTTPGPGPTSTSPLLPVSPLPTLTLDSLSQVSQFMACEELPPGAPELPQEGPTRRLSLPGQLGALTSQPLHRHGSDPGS
row,SMILES,"hERG current change (%, negative = inhibition) at 10uM [%]"
1,Cc1nn(C)cc1C(C(=O)NC1CCCCC1)N(C(=O)Cc1cccs1)c1ccc(Cl)cc1 (stereo not shown),13.6
2,CSc1cccc(NC(=O)CN(c2cc(C)ccc2C)S(C)(=O)=O)c1,-2.02
3,CCc1ccc(NC(=O)COc2ccc(F)cc2C(=O)c2cnn(-c3ccccc3)c2)cc1,-0.355
4,COc1ccc(/C=N/NC(=O)c2nnn(-c3nonc3N)c2CN(C)c2ccccc2)cc1,9.9
5,Cc1cc(C)cc(N(CC(=O)N2CCC(C)CC2)S(=O)(=O)c2ccccc2)c1,-70.3
6,Cn1c(=O)c2c(nc(NCc3ccco3)n2CC(O)COc2ccccc2)n(C)c1=O (stereo not shown),-25.9
7,N#CC(=C1CCCC1)c1nc(-c2cc3ccccc3oc2=O)cs1,13
8,Cc1ccc(C(=O)N2CCN(c3ccc(NC(=O)c4ccc(Br)o4)cc3)CC2)cc1,-68.8
9,CSc1nc2sc3c(c2c(=O)[nH]1)CC(C)(C)OC3,13.8
10,CN1C(=O)C(CC(=O)Nc2ccc(F)cc2)N(Cc2ccco2)C1=S (stereo not shown),-18.3
11,COC(=O)c1ccc(Nc2cc(C)nc3ncnn23)cc1,2.44
12,CN(C)CCc1cc2c(c3c1ccc1ccccc13)OCO2.Cl,-37.3
13,Clc1ccc(-c2csc(N3CCN(c4ccccc4)CC3)n2)cc1,5.69
14,O=C1C(c2ccccc2)=[N+]([O-])c2ccccc21,4.03
15,C=CCc1cc(/C=N\NC(=O)CSc2nnc(CCCc3ccc(OC)c(C)c3)o2)cc(OC)c1O,6.96
16,Cn1nc(C(F)(F)F)c(-c2ccccc2)c1N,13.3
17,CC1(C(=O)c2ccccc2)C2c3c(ccc4ccccc34)OC(=O)C21C(=O)N1CCOCC1 (stereo not shown),-9.87
18,CCOc1c2ccc(C(=O)NCc3ccc4c(c3)OCO4)cc2nn1C,17.6
19,Cc1ccc(N(C(=O)c2ccc3c(c2)OCO3)C2C=CS(=O)(=O)C2)cc1 (stereo not shown),-29.7
20,CCC1(CC)NC(=O)N(CC(=O)OCC(=O)Nc2ccc(F)c(F)c2F)C1=O,11
21,COc1ccc(-n2c(N)c(-c3nc4ccccc4n3C)sc2=S)cc1,9.76
22,O=C(Nc1ccc2oc(-c3ccccc3)nc2c1)c1cc(-n2cnnc2)ccc1Cl,3.83

row,SMILES,"hERG current change (%, negative = inhibition) at 10uM [%]"
1,CCN(CC)S(=O)(=O)c1ccc(N2CCOCC2)c(NC(=O)c2ccc(=O)n(C)n2)c1,-25.7
2,COc1ccc(CN2CCNC(=O)C2CC(=O)N(C)Cc2ccccn2)cc1OC (stereo not shown),11.1
3,O=C(CN1C(=O)NC(Cc2c[nH]c3ccccc23)C1=O)NC1CC1 (stereo not shown),15.1
4,COCCNS(=O)(=O)c1ccc2c(c1)oc(=O)c1cc(S(=O)(=O)NCCOC)ccc12,-49.1
5,CCCCn1c(SCC(=O)c2ccc(OCC)cc2)nc2cc(S(N)(=O)=O)ccc21,26.2
6,Cc1nn(Cc2ccc(F)cc2)c(C)c1NC(=O)c1cnn2c1NC(c1ccccc1)CC2C(F)(F)F (stereo not shown),-17.7
7,CCOc1ccc(CO[C@@H]2O[C@H](CO)[C@@H](O)[C@H](O)[C@H]2NC(C)=O)cc1OC,20.9
8,Cc1ccnc(NC(=O)C2CCN(S(=O)(=O)c3ccc(Cl)c(C(F)(F)F)c3)CC2)c1,-14.2
9,Cc1ccc(SCC2(O)CCN(C(=O)c3ccc(Cl)cc3)CC2)cc1,-44
10,O=C(COc1ncnc2ccccc12)NCc1ccc2c(c1)OCO2,-4.09
11,Cc1ccc(C)c(S(=O)(=O)N2CCCCC2CCNC(=O)C(=O)NCc2ccccc2)c1 (stereo not shown),-15.8
12,Cc1ccccc1N1CCN(C(=O)c2ccccc2NC(=O)C2CC=CCC2C(=O)O)CC1 (stereo not shown),-3.7
13,Oc1ccccc1-c1nc(N2CCN(Cc3ccccc3)CC2)c2ccccc2n1,10.5
14,COc1ccc(C(=O)Nc2ccccc2C(=O)N2CCCCCC2)cc1OC,-10.5
15,CC(C)(C)NC(=O)CN(C(=O)C(=O)Nc1ccc2c(c1)OCCO2)C1CC1,10.3
16,O=C(Nc1ccccc1F)c1ccc(OCc2ccccc2)cc1,4.37
17,Cc1ccc(NC(=O)c2cccc3c2C(=O)N(C2CCCCC2)C3)cc1,13.2
18,COc1ccc(CC(=O)Nc2c3c(nn2-c2cccc(Cl)c2)CS(=O)(=O)C3)cc1,-51.7
19,COc1ccc(N2CCN(C(=O)c3cc(=O)c4cc(C)c(C)cc4o3)CC2)cc1,0.819
20,CCOc1ccc(N2C(=O)CC(/C=C3/N(C)c4ccccc4C3(C)C)C2=O)cc1 (stereo not shown),17.3
21,COc1cc(S(=O)(=O)N2CCN(C(=O)c3ccco3)CC2)c(OC)cc1C,6.03
